Measured values from the supplement of paper PMC4967469.
IC50 is the fitted dose that halves viability relative to control wells, and lower means more sensitive; a fit beyond the top or the lowest dose is shown as a bound at that dose. AUC sums up the same curve from the lowest dose to the 256-fold higher top dose: 1 means no effect, lower means more sensitive. For part of these data: An inferred top dose was derived from the fitted curves, not read from the paper. For part of these data: Drugs with an entry number were screened twice under separate entries, and the two screens often disagree.

Legend:
Assay in all cases: Viability of human cancer cell lines after 72 h of drug (GDSC screen)
AMG-706 = compound: CC1(C)CNc2cc(NC(=O)c3cccnc3NCc3ccncc3)ccc21 [AMG-706]; conditions: top dose 2 µM; top dose inferred
Protocol: (§1)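 Human cancer cell lines in 384-well plates, medium with 10% serum, drug for 72 h over a 256-fold dose range (nine 2-fold or five 4-fold steps up to the top dose). Adherent lines were fixed and stained with the nucleic acid dye Syto60, suspension lines read with resazurin; signal relative to control wells, capped at 0 and 100%. One two-parameter sigmoid per drug and line, fitted in a mixed model over all curves with the slope shared within a line.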

Cyclopamine = compound: CC1=C2C[C@H]3[C@@H](CC=C4C[C@@H](O)CC[C@@]43C)[C@@H]2CC[C@]12O[C@@H]1C[C@H](C)CN[C@H]1[C@H]2C [Cyclopamine]; conditions: top dose 16 µM; top dose inferred
Protocol: as §1

Belinostat = compound: O=C(/C=C/c1cccc(S(=O)(=O)Nc2ccccc2)c1)NO [Belinostat]; conditions: top dose 20 µM; top dose inferred
Protocol: as §1

NVP-TAE684 = compound: COc1cc(N2CCC(N3CCN(C)CC3)CC2)ccc1Nc1ncc(Cl)c(Nc2ccccc2S(=O)(=O)C(C)C)n1 [NVP-TAE684]; conditions: top dose 2 µM
Protocol: as §1

YM155 = compound: COCC[n+]1c2c(n(Cc3cnccn3)c1C)C(=O)c1ccccc1C2=O [YM155]; conditions: top dose 5.12 µM
Protocol: as §1

OSI-906 = compound: C[C@]1(O)C[C@@H](c2nc(-c3ccc4ccc(-c5ccccc5)nc4c3)c3c(N)nccn32)C1 [OSI-906]; conditions: top dose 2.56 µM; top dose inferred
Protocol: as §1

FTI-277 = compound: COC(=O)[C@H](CCSC)NC(=O)c1ccc(NC[C@@H](N)CS)cc1-c1ccccc1 [FTI-277]; conditions: top dose 1.024 µM; top dose inferred
Protocol: as §1

NSC-207895 = compound: CN1CCN(c2ccc([N+](=O)[O-])c3no[n+]([O-])c23)CC1 [NSC-207895]; conditions: top dose 20 µM; top dose inferred
Protocol: as §1

SB-715992 = compound: Cc1ccc(C(=O)N(CCCN)[C@@H](c2nc3cc(Cl)ccc3c(=O)n2Cc2ccccc2)C(C)C)cc1 [SB-715992]; conditions: top dose 0.128 µM; top dose inferred
Protocol: as §1

JNJ-26854165 = compound: c1ccc2c(CCNc3ccc(Nc4ccncc4)cc3)c[nH]c2c1 [JNJ-26854165]; conditions: top dose 10 µM
Protocol: as §1

CGP-60474 = compound: OCCCNc1cc(-c2ccnc(Nc3cccc(Cl)c3)n2)ccn1 [CGP-60474]; conditions: top dose 0.256 µM; top dose inferred
Protocol: as §1

Docetaxel = compound: CC(=O)O[C@@]12CO[C@@H]1C[C@H](O)[C@@]1(C)C(=O)[C@H](O)C3=C(C)[C@@H](OC(=O)[C@H](O)[C@@H](NC(=O)OC(C)(C)C)c4ccccc4)C[C@@](O)([C@@H](OC(=O)c4ccccc4)[C@H]21)C3(C)C [Docetaxel]; conditions: top dose 0.0125 µM
Protocol: as §1

JNK Inhibitor VIII = compound: CCOc1nc(NC(=O)Cc2cc(OC)ccc2OC)cc(N)c1C#N [JNK Inhibitor VIII]; conditions: top dose 10 µM; top dose inferred
Protocol: as §1

JQ1 = compound: Cc1sc2c(c1C)C(c1ccc(Cl)cc1)=N[C@@H](CC(=O)OC(C)(C)C)c1nnc(C)n1-2 [JQ1]
Protocol: as §1

PHA-665752 = compound: Cc1[nH]c(/C=C2\C(=O)Nc3ccc(S(=O)(=O)Cc4c(Cl)cccc4Cl)cc32)c(C)c1C(=O)N1CCC[C@@H]1CN1CCCC1 [PHA-665752]; conditions: top dose 2 µM
Protocol: as §1

[1] = top dose 1 µM, screen: GDSC drug entry 1218, top dose inferred
[2] = top dose 2.56 µM, screen: GDSC drug entry 163

Cell Line	AUC (AMG-706)	IC50 (AMG-706)	AUC (Cyclopamine)	IC50 (Cyclopamine)	AUC (Belinostat)	IC50 (Belinostat)	AUC (NVP-TAE684)	IC50 (NVP-TAE684)	AUC (YM155)	IC50 (YM155)	AUC (OSI-906)	IC50 (OSI-906)	AUC (FTI-277)	IC50 (FTI-277)	AUC (NSC-207895)	IC50 (NSC-207895)	AUC (SB-715992)	IC50 (SB-715992)	AUC (JNJ-26854165)	IC50 (JNJ-26854165)	AUC (CGP-60474)	IC50 (CGP-60474)	AUC (Docetaxel)	IC50 (Docetaxel)	AUC (JNK Inhibitor VIII)	IC50 (JNK Inhibitor VIII)	AUC (JQ1; [1])	IC50 (JQ1; [1])	AUC (JQ1; [2])	IC50 (JQ1; [2])	AUC (PHA-665752)	IC50 (PHA-665752)
P30-OHK (lymphoblastic leukaemia, suspension)	0.991	> 2000 nM	0.966	> 16000 nM	0.112	97.7 nM	0.96	> 2000 nM	0.016	< 20 nM	0.933	> 2560 nM	0.98	> 1020 nM	0.907	19500 nM	0.628	16.9 nM	0.933	> 10000 nM	0.953	> 256 nM	0.937	> 12.5 nM	0.991	> 10000 nM	0.648	149 nM	0.506	166 nM	0.99	> 2000 nM
Raji (Burkitt lymphoma, suspension)	0.988	> 2000 nM	0.987	> 16000 nM	0.307	376 nM	0.99	> 2000 nM	0.024	< 20 nM	0.902	> 2560 nM	0.985	> 1020 nM	0.969	> 20000 nM	0.912	> 128 nM	0.959	> 10000 nM	0.663	44 nM	0.983	> 12.5 nM	0.983	> 10000 nM	0.857	732 nM	0.757	826 nM	0.99	> 2000 nM
SIMA (neuroblastoma, adherent)	0.961	> 2000 nM	0.965	> 16000 nM	0.567	1950 nM	0.98	> 2000 nM	0.574	523 nM	0.768	1090 nM	0.982	> 1020 nM	0.915	> 20000 nM	0.9	> 128 nM	0.924	> 10000 nM	0.891	> 256 nM	0.902	> 12.5 nM	0.985	> 10000 nM	0.954	> 1000 nM	0.734	822 nM	0.957	> 2000 nM
